PMC3348924
These are yes or no findings as the source states them, for the method shown. In cells and extracts the contact can be indirect. Some results given as binding are weak or reduced against the parent protein; the word gives no strength. Tags and fused reporters may be left off the sequences shown.

Sequences of proteins named here, by UniProt entry; tags and fusion partners are left off. A change or cut given only in a name is not applied to a line headed by its entry. Residues count along the entry.
UniProt Q04865: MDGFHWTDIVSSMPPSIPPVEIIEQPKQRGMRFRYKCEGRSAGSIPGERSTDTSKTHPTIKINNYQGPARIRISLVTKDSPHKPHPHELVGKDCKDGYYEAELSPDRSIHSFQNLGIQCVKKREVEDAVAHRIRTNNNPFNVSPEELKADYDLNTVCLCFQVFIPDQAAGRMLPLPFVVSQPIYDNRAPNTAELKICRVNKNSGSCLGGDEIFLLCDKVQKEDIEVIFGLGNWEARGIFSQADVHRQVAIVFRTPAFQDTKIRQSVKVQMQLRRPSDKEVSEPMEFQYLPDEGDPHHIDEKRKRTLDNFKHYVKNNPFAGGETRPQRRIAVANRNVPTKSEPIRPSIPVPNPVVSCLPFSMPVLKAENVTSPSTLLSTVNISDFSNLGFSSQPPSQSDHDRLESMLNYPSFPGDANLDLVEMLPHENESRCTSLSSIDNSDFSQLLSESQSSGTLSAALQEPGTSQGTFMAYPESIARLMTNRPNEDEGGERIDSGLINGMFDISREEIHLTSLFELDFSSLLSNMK
UniProt P19838, residues 1-433: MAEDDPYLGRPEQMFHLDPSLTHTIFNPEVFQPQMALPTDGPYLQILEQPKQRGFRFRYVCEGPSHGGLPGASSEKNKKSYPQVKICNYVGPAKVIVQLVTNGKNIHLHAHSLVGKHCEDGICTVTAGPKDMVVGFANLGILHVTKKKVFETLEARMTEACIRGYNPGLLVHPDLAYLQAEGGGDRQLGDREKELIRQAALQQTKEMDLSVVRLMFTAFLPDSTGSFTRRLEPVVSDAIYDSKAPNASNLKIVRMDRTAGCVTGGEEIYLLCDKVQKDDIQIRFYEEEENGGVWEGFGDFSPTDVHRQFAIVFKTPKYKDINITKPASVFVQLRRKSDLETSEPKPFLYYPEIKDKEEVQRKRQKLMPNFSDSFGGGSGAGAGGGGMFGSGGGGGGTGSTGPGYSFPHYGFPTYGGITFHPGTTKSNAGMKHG

Experiments:
Experiment in all cases: pull-down; 15 µg recombinant 6xHis-Trx-S-tag protein mixed with 8 µl 35S-labelled in vitro translated protein in 50 µl Binding Buffer (20 mM Tris-HCl pH 7.5, 150 mM NaCl, 1 mM dithiothreitol, 0.6% Tween), 20 min at 37°C; captured on S protein-agarose 30 min at 4°C; SDS-PAGE and autoradiography; only the target purified
[1] = biological target: T1, full length Xenopus β-Catenin fused to 6xHis-Trx-S-tag (Xenopus) (UniProt P26233)
T1 sequence: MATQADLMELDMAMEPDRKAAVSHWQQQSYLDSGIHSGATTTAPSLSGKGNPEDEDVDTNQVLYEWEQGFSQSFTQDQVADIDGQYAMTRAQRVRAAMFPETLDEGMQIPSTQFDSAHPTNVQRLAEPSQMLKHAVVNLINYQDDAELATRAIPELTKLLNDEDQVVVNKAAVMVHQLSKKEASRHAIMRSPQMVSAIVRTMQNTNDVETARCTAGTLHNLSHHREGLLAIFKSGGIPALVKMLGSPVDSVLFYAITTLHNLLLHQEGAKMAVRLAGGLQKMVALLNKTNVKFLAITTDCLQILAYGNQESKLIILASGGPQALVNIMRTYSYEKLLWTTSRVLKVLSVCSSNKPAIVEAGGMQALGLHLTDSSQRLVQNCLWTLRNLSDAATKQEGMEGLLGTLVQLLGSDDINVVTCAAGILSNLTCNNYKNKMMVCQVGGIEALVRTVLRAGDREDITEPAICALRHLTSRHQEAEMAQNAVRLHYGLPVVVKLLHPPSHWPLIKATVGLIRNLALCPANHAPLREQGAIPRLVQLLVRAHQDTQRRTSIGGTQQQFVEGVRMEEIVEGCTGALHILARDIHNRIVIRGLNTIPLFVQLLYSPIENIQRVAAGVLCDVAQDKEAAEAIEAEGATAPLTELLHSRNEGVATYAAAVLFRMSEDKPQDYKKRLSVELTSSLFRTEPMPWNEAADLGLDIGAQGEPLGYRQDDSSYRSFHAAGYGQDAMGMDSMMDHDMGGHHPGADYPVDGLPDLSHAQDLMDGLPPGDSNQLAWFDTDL

[2] = biological target: T2, Xenopus β-Catenin fragment N-term (aa2–143) fused to 6xHis-Trx-S-tag (Xenopus) (UniProt P26233)
T2 sequence: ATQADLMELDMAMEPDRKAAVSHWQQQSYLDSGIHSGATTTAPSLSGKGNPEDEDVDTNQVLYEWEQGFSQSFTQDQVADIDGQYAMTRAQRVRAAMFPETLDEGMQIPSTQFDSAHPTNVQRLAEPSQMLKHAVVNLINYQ

[3] = biological target: T3, Xenopus β-Catenin fragment arm1–12 (aa144–671) fused to 6xHis-Trx-S-tag (Xenopus) (UniProt P26233)
T3 sequence: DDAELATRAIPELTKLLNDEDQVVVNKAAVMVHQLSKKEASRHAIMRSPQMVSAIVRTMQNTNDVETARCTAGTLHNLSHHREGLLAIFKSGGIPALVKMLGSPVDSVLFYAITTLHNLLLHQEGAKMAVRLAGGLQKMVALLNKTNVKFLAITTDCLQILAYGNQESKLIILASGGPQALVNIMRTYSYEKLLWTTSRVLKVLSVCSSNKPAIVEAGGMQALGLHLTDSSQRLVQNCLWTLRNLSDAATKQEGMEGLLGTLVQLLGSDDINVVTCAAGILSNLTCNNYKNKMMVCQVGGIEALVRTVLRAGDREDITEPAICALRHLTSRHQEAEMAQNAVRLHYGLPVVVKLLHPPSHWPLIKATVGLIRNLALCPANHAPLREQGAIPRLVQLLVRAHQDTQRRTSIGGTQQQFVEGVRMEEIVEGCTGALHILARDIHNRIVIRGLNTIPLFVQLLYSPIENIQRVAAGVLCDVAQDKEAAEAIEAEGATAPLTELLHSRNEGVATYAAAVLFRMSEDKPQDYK

[4] = biological target: T4, Xenopus β-Catenin fragment arm1–8 (aa144–445) fused to 6xHis-Trx-S-tag (Xenopus) (UniProt P26233)
T4 sequence: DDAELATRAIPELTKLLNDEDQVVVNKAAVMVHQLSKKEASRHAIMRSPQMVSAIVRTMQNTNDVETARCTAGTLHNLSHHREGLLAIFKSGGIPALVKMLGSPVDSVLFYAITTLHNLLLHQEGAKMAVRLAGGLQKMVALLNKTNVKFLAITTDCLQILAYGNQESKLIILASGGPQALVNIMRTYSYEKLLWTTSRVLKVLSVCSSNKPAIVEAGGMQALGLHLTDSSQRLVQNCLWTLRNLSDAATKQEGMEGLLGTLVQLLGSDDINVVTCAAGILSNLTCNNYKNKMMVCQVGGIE

[5] = biological target: T5, Xenopus β-Catenin fragment C-term (aa665–781) fused to 6xHis-Trx-S-tag (Xenopus) (UniProt P26233)
T5 sequence: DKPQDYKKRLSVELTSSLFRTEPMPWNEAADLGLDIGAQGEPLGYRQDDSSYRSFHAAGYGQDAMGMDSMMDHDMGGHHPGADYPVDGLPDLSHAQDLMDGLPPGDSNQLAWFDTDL

**Q.** “rel homology domain (RHD) of XRelA (from UniProt Q04865 18-306) (domain or fragment)” was tested. Which binding [1] did it give?
**A.** binds

**Q.** For human p50 (from UniProt P19838 1-433), which binding [1] is on record?
**A.** no binding (tested: 15 µg recombinant protein in 50 µl)

**Q.** With XrelA (from UniProt Q04865 1-527) as the molecule, how does the binding [2] read?
**A.** no binding (tested: 15 µg recombinant protein in 50 µl)

**Q.** What about the binding [3] of the same molecule?
**A.** binds

**Q.** And the binding [4]?
**A.** binds

**Q.** What about the binding [5] of the same molecule?
**A.** no binding (tested: 15 µg recombinant protein in 50 µl)

**Q.** What about the binding [1] of the same molecule?
**A.** binds

B1: XrelB (protein, UniProt P51510 1-497)
chain: MREQGREGSSFLSQQLGPTIEDVMDLINSDRDVISSPSVFVCEDAPSSILSTVTVAHYVPHEQCPSTSWAPQREGPNPELNITEQPKQRGMRFRYQCEGRSTGSILGEKSTEHNKTLPEIEIINCDGLEEIHVIVCLVWRDPPHRVHPHGLVGKDCHNGICEVTLNPQNGVAKHSFSNLGIQCVRKREIDSAVNERLKLNIDPYKAGKWRLHEEVDLNVVRLCFQASCTGPGFKYDIPPVLSDPIYDKKSTNTSELKISRMNKEYGRCEGGEEVYILCDKVQKEDILVIFGEDKWEARADFSQADVHRQIAIVLKTPPYHDLHITEPACVRVFLQRITDGIRSEGMPFVYMPRVKDPNGVHSKRKHRDCSQLGDIGDPDPHGIEMKRRKVRPSYADHLIPPYPDINLPLMDSFNHNEGYHDLPLMNPDEDAFHFLTEDPHFSDLLTHDPYFLDGYSNQFLPDQVNGVTAHLVGSSLALTDEEQPLPDCAFNDSGCRR
modifications: 35S-labelled
**Q.** For B1, which binding [1] is on record?
**A.** binds
